Measured values as given in US20180169228A1 (ZHUHAI ESSEX BIO PHARMACEUTICAL, published 2018).
Substitutions are numbered along the chain they refer to.

T1: human VEGF165 (Human vascular endothelial growth factor 165, hVEGF165) (human, UniProt P15692 207-395)
T1 sequence: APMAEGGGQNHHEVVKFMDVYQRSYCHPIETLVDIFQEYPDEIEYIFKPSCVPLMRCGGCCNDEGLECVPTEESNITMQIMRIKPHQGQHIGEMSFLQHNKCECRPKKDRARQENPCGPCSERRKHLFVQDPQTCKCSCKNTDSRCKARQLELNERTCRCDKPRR

B1: heavy-chain antibody A69451 (Fc fusion)
heavy: QVKLEESGGGLVQAGGSLRLSCAASGRTFSSYRLGWFRQAPGKEREFVAAISWKDDTTYYADSVKGRFTISRDNAKNTVYLQMNSLTPEDSAVYSCAARGYSRSWNPWSEYDYWGQGTRVTVSS[letters of human IgG1 Fc left out]
B2: heavy-chain antibody A80890 (Fc fusion)
heavy: QVKLEESGGGLVQAGGSLRLSCAASGSISHVPNMHWYRQAPGQKRQLVATITRGGNTMYADSVKGRFTISRENAKNTIYLQMTTLKPEDTAVYYCNADVWSSALFKYVEYWGQGTQVTVSS[letters of human IgG1 Fc left out]
B3: heavy-chain antibody A80726 (Fc fusion)
heavy: QVKLEESGGGLVQAGDSLRLSCTASGGTYSSGVMGWFRQAPGKERDFVASINWSGVTDYSDSVKGRFFISRDTAKSTVYLHMFSLKADDTAVYFCAAGSRWRANSGRHYDYWGQGTQVTVSS[letters of human IgG1 Fc left out]
B4: heavy-chain antibody A80887 (Fc fusion)
heavy: QVKLEESGGGLVQTGGSLRLSCAASGRTFSSYAMGWFRQAPGKEREFVAAISWSGGHTYYADSAVDSVRGRFTISRGNAKNTVYLQMNNLKPEDTAVYYCAADFGTRLRFTTNDYQYWGQGTQVTVSS[letters of human IgG1 Fc left out]
B5: heavy-chain antibody A80740 (Fc fusion)
heavy: EVQLVDSGGGLVQAGGSLRLSCAASGSISYVPDMHWYRQAPGQQRQLVATITRGGNTMYADSVKGRFTISRDNAKNTVYLQMTSLKPEDTAVYYCNADVWSSVLFKLVEYWGQGTQVTVSS[letters of human IgG1 Fc left out]
B6: heavy-chain antibody A69452 (Fc fusion)
heavy: B5 heavy with E1G, D6E, L11W, G16D, A23T, S29P, L104A, F105L, T115I
B7: heavy-chain antibody A69457 (Fc fusion)
heavy: B5 heavy with E1Q, Q3K, V5E, D6E, S29P, L104A, F105L, T115I
B8: heavy-chain antibody A69458 (Fc fusion)
heavy: DVQLVDSGGGLVQPGGSLTLSCVLSGRPFSYYAVSWFRQAPGGEREFVAGISRSGGSVNFAGFVKGRFTVSRDNAKSAVNLQMNSLKREDTAVYYCAADTNVYASATLSNYAYWGQGTQVTVSS[letters of human IgG1 Fc left out]
B9: heavy-chain antibody A69462 (Fc fusion)
heavy: QVQLVESGGGLVQAGGSLRLSCTDSGRTFGAYNMGWFRQAPGKEREFVAAINWSGISTYYTDSVKGRFTISRDNAKNTVCLQMNNLSPEDTAVYYCAANRGGNYEKVYLYNNWGQGTQVTVSS[letters of human IgG1 Fc left out]
B10: heavy-chain antibody A60724 (Fc fusion)
heavy: B9 heavy with D24A, A40T, C80Y
B11: heavy-chain antibody A80723 (Fc fusion)
heavy: DVQLVESGGGLVQAGDSLRLSCAYSGATFSNNVMGWFRQAPGRARDFVAAFNGWSSVTEYADSVKGRFFVSRDNDKSTMYLQMINLKPDDTAVYFCAAGRRWRANRETHYDYWGQGTQVTVSS[letters of human IgG1 Fc left out]
B12: heavy-chain antibody A80744 (Fc fusion)
heavy: AVQLVESGGGLVQAGGSLRLSCAASGLNFRTYTIGWFRQAPGKEREFIVGITWGGGIIDSIDSMKGRATISRDNAENTVYLQMNSLKPEDTAVYSCAAGRNTGGYTRLWRSYDYWGQGTQVTVSS[letters of human IgG1 Fc left out]
B13: heavy-chain antibody A80730 (Fc fusion)
heavy: QVQLVESGGGLVQAGGSLRLSCAASGRAPETYAMGWFRQAPGKEREFVAHIIVTGDRTYYADSVKGRFTISRNNAKNTVYLQMNSLKPEDTAVYYCAADRSARWEPGTHYWGQGTQVTVSS[letters of human IgG1 Fc left out]

Each binder was assayed against T1, human VEGF165 (Human vascular …) (assay: cell-based or functional assay).

Row | Binder | EC50 of HUVEC cell proliferation inhibition assay
1 | B1 | 0.557 µg/mL
2 | B2 | 0.642 µg/mL
3 | B3 | 0.122 µg/mL
4 | B4 | 0.0588 µg/mL
5 | B5 | 0.79 µg/mL
6 | B6 | 0.45 µg/mL
7 | B7 | 0.46 µg/mL
8 | B8 | 0.12 µg/mL
9 | B9 | 0.0632 µg/mL
10 | B10 | 0.0267 µg/mL
11 | B11 | 0.114 µg/mL
12 | B12 | 0.176 µg/mL
13 | B13 | 0.211 µg/mL
